Results as given in the supplement of paper PMC3334620.
Whole data set: some 33,000 sequences, median “E-score (-0.5 to 0.5)” near -0.036, cut for the highest 2% near 0.37. The list shows a part of the results.

Target: T1, Yer064c (UniProt P40041)
T1 sequence: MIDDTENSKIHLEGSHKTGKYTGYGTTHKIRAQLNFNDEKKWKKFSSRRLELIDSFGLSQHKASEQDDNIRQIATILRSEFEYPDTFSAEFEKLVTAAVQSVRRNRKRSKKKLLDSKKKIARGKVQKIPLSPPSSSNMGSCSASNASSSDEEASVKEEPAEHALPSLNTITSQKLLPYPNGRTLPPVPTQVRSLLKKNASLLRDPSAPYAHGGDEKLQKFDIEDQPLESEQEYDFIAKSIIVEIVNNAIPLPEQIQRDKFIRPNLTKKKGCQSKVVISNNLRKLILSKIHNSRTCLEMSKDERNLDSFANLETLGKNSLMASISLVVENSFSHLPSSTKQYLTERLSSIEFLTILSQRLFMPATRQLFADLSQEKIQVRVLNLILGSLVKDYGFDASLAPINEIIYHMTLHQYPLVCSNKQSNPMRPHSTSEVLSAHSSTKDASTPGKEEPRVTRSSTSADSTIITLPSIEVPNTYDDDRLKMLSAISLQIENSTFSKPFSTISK
Assay: PBM E-score (8-mer binding enrichment) (E-score (-0.5 to 0.5)); higher = stronger / more preferred TF binding; most listed sequences are background and not binding sites
Conditions: protein concentration: 200 nM; construct: GST-full length
Method: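 Universal 'all 10-mer' protein binding microarrays (Agilent AMADID 015681) probed with GST-tagged S. cerevisiae TFs (full-length or DBD) made by in vitro transcription/translation (PURExpress), about 100-200 nM. Bound TF was detected with fluorescent anti-GST. Each ungapped 8-mer (which stands for itself and its reverse complement) is scored by the PBM enrichment score (E-score), a modified Wilcoxon-Mann-Whitney statistic from -0.5 to +0.5, computed with the Universal PBM Analysis Suite. Scale: above 0.35 generally sequence-specific binding.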

In order of rising “PBM E-score” value:
1. CGATGGCA  -0.405
2. AGGAACGG  -0.36
3. GCCCACCA  -0.335
4. CCCCCGCA  -0.326
5. AGCGGCCC  -0.314
6. GCGTCCAA  -0.308
7. CAGGGAAG  -0.305
8. AAGGCATC  -0.296
9. CCCCGGGG  -0.29
10. CACCACGG  -0.284
11. AAGCCCAG  -0.282
12. AGCCCAGC  -0.256
13. ACCGGGGA  -0.246
14. AGCATGCT  -0.245
15. CGGAGAAC  -0.236
16. GCTCTGCA  -0.221
17. AAGCTAAG  -0.218
18. ACCTGGGC  -0.215
19. GGAGCTAC  -0.214
20. ATGTTGCC  -0.203
21. GAAACCTA  -0.188
22. CAGAAAGG  -0.186
23. ACCGACGG  -0.186
24. ACCTCTCC  -0.178
25. CCCAATAC  -0.168
26. CCAGTTTC  -0.166
27. CAGGGTCC  -0.159
28. AGAGTGCA  -0.157
29. GAAGGGAA  -0.156
30. ACGTTTGG  -0.156
31. AAATGCGT  -0.152
32. CTAGATCC  -0.152
33. ACCGCCGG  -0.151
34. CGCCCCGC  -0.15
35. GTCCACGA  -0.147
36. ATAGAGGG  -0.145
37. GAGAATCC  -0.141
38. AGCCAACC  -0.138
39. CCCAACAA  -0.136
40. GAGATCTA  -0.134
41. GACCCTTA  -0.128
42. AAGAACCC  -0.128
43. CCTAAACC  -0.123
44. ATATCACG  -0.122
45. AACGCATA  -0.121
46. CAAGCCTG  -0.118
47. GCACTCAA  -0.117
48. ACCCCGGA  -0.115
49. CATAACAG  -0.114
50. GCGTTCAC  -0.113
51. AAAGATCG  -0.112
52. AACTACCA  -0.104
53. ACAGGGAA  -0.1
54. GCACGTGA  -0.0918
55. AAGCTACA  -0.0866
56. CTTTGGTA  -0.0864
57. TACGCTCA  -0.0807
58. TGGCGAAA  -0.0782
59. ATACTGGA  -0.0743
60. ACACTGCA  -0.0727
61. AACTTGTA  -0.0723
62. GCGTGTCC  -0.0669
63. AACAGTGA  -0.0624
64. ATACCTAT  -0.0579
65. ATCCGCTA  -0.0564
66. GTACAGTA  -0.0541
67. GAAGCACA  -0.0534
68. GAATTAAA  -0.0487
69. GGAGTGTA  -0.0455
70. CTGACAAA  -0.0397
71. CACCCAGG  -0.0382
72. CATATGAA  -0.0378
73. CAAACTTA  -0.0307
74. ATGCTTAA  -0.0286
75. AGCACCGA  -0.0273
76. CATTCCTC  -0.0253
77. GTTGTTCA  -0.0244
78. ATTTACCC  -0.0205
79. GAATTTGA  -0.0204
80. CCCAAGCG  -0.016
81. ATTTCTAC  -0.0155
82. CGAGTGCG  -0.014
83. GCCTGTGA  -0.00963
84. ATACCGTG  -0.00791
85. AGCACTTA  -0.00499
86. CCACGGAG  0.00248
87. GGTCGTCA  0.00372
88. ACGGTGAA  0.00671
89. CAATACCC  0.011
90. ACGCTCGC  0.0112
91. TCCAATAA  0.0134
92. ACTTCTCC  0.0225
93. AAGCTTAA  0.0226
94. ATGTATCG  0.0252
95. AATTGTAA  0.0266
96. CGAGCGTA  0.0278
97. CTACGTTA  0.0321
98. ATTTTGGG  0.0393
99. CGATGATA  0.0426
100. CGCAATAG  0.045
101. TGTTACAA  0.0483
102. GGTTGAAC  0.0486
103. CTGTGTTC  0.0489
104. ACAGTGGA  0.0503
105. ATAGCCTG  0.0506
106. AAGGCAAT  0.0533
107. CATTCAGA  0.0564
108. CATCACGC  0.0572
109. ACGATGTA  0.0608
110. CACATACA  0.0609
111. AAAGGATT  0.0622
112. CAACCACA  0.0653
113. GTACTCGA  0.0683
114. CAATCCCG  0.0705
115. ATTAGGTC  0.0776
116. TCCGAAGA  0.0783
117. CTAAACCC  0.0794
118. CATTAACG  0.0806
119. TAGCCAGA  0.0824
120. GTGTAAAC  0.0831
121. AACTTAAC  0.0853
122. GAGTGTCA  0.0868
123. TGAGATCA  0.0875
124. GGTGTTGA  0.0901
125. TTCTCAAA  0.0907
126. TCCAAGAA  0.0927
127. CGCATAAA  0.094
128. CGACACAG  0.0959
129. CATAGACA  0.0961
130. ACATAGAC  0.0983
131. TAGACGAA  0.101
132. CTAAAGCA  0.104
133. GTGATAAA  0.105
134. CTTAATAC  0.107
135. GGTCTCAA  0.109
136. CATAGCTC  0.111
137. AAAAGGCA  0.112
138. CGTCTCAG  0.123
139. AACTCGAG  0.123
140. TAGCACAA  0.124
141. TAGTACTA  0.132
142. CTTCAATA  0.133
143. ACCATAAA  0.134
144. AACGTACT  0.136
145. GTCGTCAC  0.142
146. TGTACACA  0.142
147. AAGACGAC  0.142
148. ATCAGGTG  0.145
149. AGAGTCTG  0.147
150. AAAGTGCT  0.156
151. TTACGCAA  0.157
152. CTTAAAGA  0.169
153. CAGATTAC  0.173
154. ACACATGT  0.194
155. TCATGTAA  0.197
156. AGCTAATC  0.206
157. ATTAAGAC  0.208
158. ATTTGTAC  0.225
159. ACTACAGT  0.233
160. ACACATCC  0.241
161. ATTATTAG  0.242
162. ACTACTTG  0.247
163. GACTGCAA  0.264
164. ATTAACAC  0.267
165. AAGATTAA  0.321
166. GAGTCTGA  0.323
167. CTAGAGTC  0.366
168. AGAGACTC  0.386
169. AAGAATCA  0.392
170. CCTGATTC  0.399
171. TAAGACTA  0.423
172. AGTCACAG  0.467
